# Source: the supplement of paper PMC9046079
# Counter-ions that a name gives are not always drawn. ± gives the standard deviation of the averaged measurements. Some of the results follow.
# Assays:
# [1] = system: murine small intestinal organoids (ENR+CD Paneth differentiation); assay: cellular ATP (CellTiter-Glo 3D) relative to plate median (log10 fold change); higher = more viable cells; conditions: 6 d
# [2] = system: murine small intestinal organoids (ENR+CD Paneth differentiation); assay: carbachol-stimulated secreted lysozyme activity relative to plate median (log10 fold change); higher = more Paneth cell lysozyme secretion; conditions: 6 d, carbachol 10 µM
# [3] = system: murine small intestinal organoids (ENR+CD Paneth differentiation); assay: basal (non-stimulated) secreted lysozyme activity relative to plate median (log10 fold change); higher = more Paneth cell lysozyme secretion; conditions: 6 d
# 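For basal (non-stimulated) secreted lysozyme activity relative to plate median in this document: ISC-enriched organoid precursors grown as 2.5D pseudo-monolayer on Matrigel, compound given on day 0 and day 3, plate values LOESS-normalized before median fold change, three murine donors.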
# 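For cellular ATP (CellTiter-Glo 3D) relative to plate median in this document: 2.5D pseudo-monolayer culture of ISC-enriched organoids partly embedded atop Matrigel, compound added on day 0 and again on day 3, per-plate LOESS correction before median fold change.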
SMILES,cellular ATP (log10) ([1]; 0.08 µM),cellular ATP (log10) ([1]; 0.4 µM),cellular ATP (log10) ([1]; 2 µM),cellular ATP (log10) ([1]; 10 µM),carbachol-stimulated secreted lysozyme activity (log10) ([2]; 0.08 µM),carbachol-stimulated secreted lysozyme activity (log10) ([2]; 0.4 µM),carbachol-stimulated secreted lysozyme activity (log10) ([2]; 2 µM),carbachol-stimulated secreted lysozyme activity (log10) ([2]; 10 µM),basal (log10) ([3]; 0.08 µM),basal (log10) ([3]; 0.4 µM),basal (log10) ([3]; 2 µM),basal (log10) ([3]; 10 µM)
COc1ccnc2[nH]cc(C(=O)C(=O)N3CCN(C(=O)c4ccccc4)C[C@H]3C)c12,0.233 ± 0.11,0.102 ± 0.1,-0.289 ± 0.31,-1.15 ± 0.72,0.173 ± 0.023,0.007 ± 0.16,-0.167 ± 0.0055,-0.38 ± 0.074,0.141 ± 0.066,-0.00702 ± 0.15,-0.0999 ± 0.065,-0.227 ± 0.078
CC(C)C[C@@H](C(=O)N[C@H](C(=O)OC1CCCC1)c1ccccc1)[C@H](O)C(=O)NO [Tosedostat (CHR2797)],-0.139 ± 0.15,0.0608 ± 0.079,-0.165 ± 0.19,-0.384 ± 0.35,-0.222 ± 0.033,-0.101 ± 0.14,-0.144 ± 0.12,-0.238 ± 0.25,-0.0589 ± 0.17,0.000743 ± 0.17,-0.0582 ± 0.072,-0.136 ± 0.11
Cc1ccc(S(=O)(=O)c2ccc([N+](=O)[O-])o2)cc1,-0.0516 ± 0.32,-0.014 ± 0.09,-0.101 ± 0.023,-0.782 ± 0.78,0.0913 ± 0.25,0.173 ± 0.21,-0.145 ± 0.058,-0.271 ± 0.34,0.0906 ± 0.16,0.0506 ± 0.069,-0.104 ± 0.089,-0.154 ± 0.15
COc1ccc2[nH]c([S@@+]([O-])Cc3ncc(C)c(OC)c3C)nc2c1 [Esomeprazole Sodium],0.288 ± 0.17,0.199 ± 0.21,0.386 ± 0.19,0.271 ± 0.17,0.0676 ± 0.086,0.122 ± 0.025,0.0118 ± 0.037,-0.0149 ± 0.075,0.0858 ± 0.066,0.233 ± 0.15,0.0344 ± 0.061,-0.016 ± 0.08
CCCCCCCCCCCCCCCCn1cc[n+](Cc2ccccc2)c1C,-0.347 ± 0.42,-0.508 ± 0.37,-1.11 ± 0.3,-1.79 ± 0.87,-0.113 ± 0.1,-0.284 ± 0.17,-0.445 ± 0.04,-0.502 ± 0.041,-0.0345 ± 0.057,-0.188 ± 0.07,-0.219 ± 0.091,-0.263 ± 0.17
O=C(O)c1cccc(-c2noc(-c3ccccc3F)n2)c1 [Ataluren (PTC124)],0.267 ± 0.14,-0.34 ± 0.91,-0.042 ± 0.31,0.00552 ± 0.2,0.103 ± 0.1,0.0921 ± 0.048,0.0895 ± 0.23,0.0328 ± 0.062,0.029 ± 0.077,0.0415 ± 0.11,0.131 ± 0.18,0.00879 ± 0.067
Cc1cc([C@@H](C)Nc2ccccc2C(=O)O)c2nc(N3CCOCC3)cc(=O)n2c1,0.24 ± 0.17,0.223 ± 0.13,-0.509 ± 0.77,-1.2 ± 0.85,0.214 ± 0.12,0.185 ± 0.15,-0.175 ± 0.14,-0.341 ± 0.013,0.108 ± 0.084,0.0757 ± 0.079,-0.13 ± 0.15,-0.248 ± 0.13
OCCn1cc(-c2cnc3nnn(Cc4ccc5ncccc5c4)c3n2)cn1,0.136 ± 0.21,0.258 ± 0.28,-0.051 ± 0.19,0.116 ± 0.24,0.091 ± 0.048,0.253 ± 0.23,0.0617 ± 0.12,0.167 ± 0.17,0.0853 ± 0.03,0.161 ± 0.17,0.122 ± 0.057,0.0709 ± 0.035
Cc1cc(C(C)(C)C)c(O)c(C)c1CC1=NCCN1 [Oxymetazoline HCl],0.143 ± 0.069,0.118 ± 0.11,-0.00656 ± 0.14,0.118 ± 0.1,0.168 ± 0.067,0.162 ± 0.078,-0.0118 ± 0.021,-0.0608 ± 0.047,0.0592 ± 0.022,0.0154 ± 0.051,0.0228 ± 0.051,0.00749 ± 0.071
C[C@@H]1CN(CC(=O)Nc2ccc3c(c2)Cc2cccc(-c4cc(=O)cc(N5CCOCC5)o4)c2S3)C[C@H](C)O1,0.114 ± 0.12,0.0392 ± 0.16,0.121 ± 0.51,-0.522 ± 0.4,0.326 ± 0.026,0.102 ± 0.21,-0.107 ± 0.059,-0.286 ± 0.17,0.0419 ± 0.079,-0.00138 ± 0.028,-0.0152 ± 0.089,-0.0884 ± 0.097
CC(C)(C)Cn1c(N)nc2ccc(-c3[nH]c(C(C)(C)C)nc3-c3ccc(F)cc3)nc21,-0.299 ± 0.16,-0.34 ± 0.39,-0.339 ± 0.27,-0.332 ± 0.19,0.0282 ± 0.11,-0.0734 ± 0.088,-0.106 ± 0.14,-0.164 ± 0.011,0.0653 ± 0.27,-0.1 ± 0.065,0.0433 ± 0.27,-0.126 ± 0.04
NC(=O)c1ccc(I)c([N+](=O)[O-])c1 [Iniparib (BSI-201)],0.339 ± 0.22,0.181 ± 0.36,0.157 ± 0.16,0.244 ± 0.17,-0.0178 ± 0.15,0.0365 ± 0.071,-0.0397 ± 0.088,-0.00295 ± 0.051,0.0418 ± 0.046,0.000353 ± 0.081,0.0158 ± 0.087,-0.016 ± 0.018
"COc1cc2c(cc1Cc1cccc(Cl)c1F)c(=O)c(C(=O)O)cn2[C@H](CO)C(C)C [Elvitegravir (GS-9137, JTK-303)]",-0.000622 ± 0.45,-0.0396 ± 0.34,-0.344 ± 0.049,-0.737 ± 0.68,-0.0681 ± 0.047,0.106 ± 0.46,-0.16 ± 0.056,-0.249 ± 0.0084,-0.0473 ± 0.092,-0.0687 ± 0.071,-0.0943 ± 0.074,-0.0898 ± 0.11
CC(C)c1ccc(NC(=O)Cn2cnc3c2c(=O)n(C)c(=O)n3C)cc1,0.0818 ± 0.25,0.191 ± 0.14,-0.00793 ± 0.14,-0.241 ± 0.17,0.11 ± 0.14,0.153 ± 0.029,-0.0696 ± 0.1,0.141 ± 0.17,0.0628 ± 0.063,0.0334 ± 0.059,-0.0066 ± 0.078,-0.0472 ± 0.062
CN(Cc1cnc2nc(N)nc(N)c2n1)c1ccc(C(=O)N[C@@H](CCC(=O)O)C(=O)O)cc1 [Methotrexate],-0.615 ± 0.25,-0.722 ± 0.52,-0.701 ± 0.19,-0.642 ± 0.38,-0.203 ± 0.06,-0.201 ± 0.025,-0.25 ± 0.0079,-0.227 ± 0.093,-0.0969 ± 0.07,-0.0382 ± 0.042,-0.13 ± 0.051,-0.0756 ± 0.085
Nc1ncnc2c1c(-c1cccc(OCc3ccccc3)c1)cn2C1CC(CN2CCCC2)C1 (configuration not stated),0.679 ± 0.32,0.663 ± 0.24,0.257 ± 0.081,-0.465 ± 0.47,0.238 ± 0.3,0.317 ± 0.48,-0.238 ± 0.089,-0.297 ± 0.096,0.142 ± 0.093,0.172 ± 0.27,-0.0945 ± 0.068,-0.135 ± 0.088
